This note sets out measurements from PubChem BioAssay (NCATS).

Values joined by “and” are separate entries in the source; they are usually repeats but may differ in a detail not shown here. Equal values may be shown once. The list shows a part of the results. Shown are side measurements of this screen, not its main read-out; they come without a call. Compounds called inactive in the main read-out are mostly missing here. Potencies come from curve fits of mixed quality, noted in brackets.
Tags describe the fitted curve by direction and shape.

This assay has as its target Histamine N-methyltransferase (Homo sapiens) (UniProt P50135). Description: Confirmatory Screen for Target Class Profiling of Small Molecule Inhibitors of Methyltransferases (AID 1745852).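 Further: inhibitor potency for blocking SAH production.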 The settings on record: MTase-Glo luminescence, SAH detection, recombinant enzyme; measured here: HNMT inhibition potency.
Chain of UniProt P50135 (P50135 whole entry, looked up): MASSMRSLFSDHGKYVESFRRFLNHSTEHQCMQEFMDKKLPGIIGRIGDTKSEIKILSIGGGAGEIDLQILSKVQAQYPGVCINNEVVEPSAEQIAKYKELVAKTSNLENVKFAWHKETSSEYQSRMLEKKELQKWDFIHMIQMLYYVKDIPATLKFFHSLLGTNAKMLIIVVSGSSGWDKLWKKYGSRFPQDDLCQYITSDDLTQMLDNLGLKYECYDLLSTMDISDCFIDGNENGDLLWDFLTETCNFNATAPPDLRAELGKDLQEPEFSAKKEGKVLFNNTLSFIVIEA
By IC50 is commonly meant the concentration that inhibits the measured activity by half. Take `CCNc1nccc(N2CCC(CC(=O)NCC(C)C)CC2)n1`: the IC50 was 17.1 µM [falling, partial curve].
On to `CN(C)CCOC(C)(c1ccccc1)c1ccc(Cl)cc1` (stereo not given), for which the concentration for half-maximal inhibition (IC50) was 19.2 µM [falling, partial curve].
Turning to `c1ccc(CCN2CCNc3cc(NCc4cccnc4)ncc3C2)cc1`, the IC50 was 12.4 µM [falling, partial curve].
The figure for `Cc1cnc(CCNC(=O)c2cccs2)n1C1CCC1` is 19.2 µM [falling, partial curve]; for `CCNc1nccc(N2CCC(CC(=O)N3CCN(c4ccccc4F)CC3)CC2)n1` it is 19.2 µM [falling, partial curve].
With `COc1cc(N2CCC(N3CCN(C)CC3)CC2)ccc1Nc1ncc(Cl)c(-c2c[nH]c3ccccc23)n1`, the IC50 was 13.6 µM [falling, partial curve].
For `CCN(CC)CCCCNc1ncc2cc(-c3c(Cl)cccc3Cl)c(NC(=O)NC(C)(C)C)nc2n1`, the IC50 is 17.1 µM [falling, partial curve] and 19.3 µM [falling, partial curve].
For `Fc1ccc2c(CCNCc3cccc(OCC(F)(F)C(F)F)c3)c[nH]c2c1` the value was 21.5 µM [falling, partial curve].
On to `CCN(CC)CCCNC(=O)CCc1nnc2n(Cc3ccccc3)c(=O)c3ccccc3n12`, for which the IC50 was 19.2 µM [falling, partial curve].
Take `Cc1cc(NC(=O)c2cccc(NC(=O)/C=C/CN(C)C)c2)ccc1Nc1nccc(-c2cccnc2)n1`: the IC50 is 4.29 µM [falling, full curve].
